These results are taken from article PMC4336329 (PLoS ONE, 2015).

Screen size: about 310,000 compounds; about 14,000 (4.5%) showed an effect of 50% or more. The effect is printed as a negative number. Some of the results follow.
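Note: peak tail current of the secondary pulse compared with the same well before compound.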

Sequence of human ether-à-go-go-related gene (hERG) potassium channel (Q12809 whole entry, looked up): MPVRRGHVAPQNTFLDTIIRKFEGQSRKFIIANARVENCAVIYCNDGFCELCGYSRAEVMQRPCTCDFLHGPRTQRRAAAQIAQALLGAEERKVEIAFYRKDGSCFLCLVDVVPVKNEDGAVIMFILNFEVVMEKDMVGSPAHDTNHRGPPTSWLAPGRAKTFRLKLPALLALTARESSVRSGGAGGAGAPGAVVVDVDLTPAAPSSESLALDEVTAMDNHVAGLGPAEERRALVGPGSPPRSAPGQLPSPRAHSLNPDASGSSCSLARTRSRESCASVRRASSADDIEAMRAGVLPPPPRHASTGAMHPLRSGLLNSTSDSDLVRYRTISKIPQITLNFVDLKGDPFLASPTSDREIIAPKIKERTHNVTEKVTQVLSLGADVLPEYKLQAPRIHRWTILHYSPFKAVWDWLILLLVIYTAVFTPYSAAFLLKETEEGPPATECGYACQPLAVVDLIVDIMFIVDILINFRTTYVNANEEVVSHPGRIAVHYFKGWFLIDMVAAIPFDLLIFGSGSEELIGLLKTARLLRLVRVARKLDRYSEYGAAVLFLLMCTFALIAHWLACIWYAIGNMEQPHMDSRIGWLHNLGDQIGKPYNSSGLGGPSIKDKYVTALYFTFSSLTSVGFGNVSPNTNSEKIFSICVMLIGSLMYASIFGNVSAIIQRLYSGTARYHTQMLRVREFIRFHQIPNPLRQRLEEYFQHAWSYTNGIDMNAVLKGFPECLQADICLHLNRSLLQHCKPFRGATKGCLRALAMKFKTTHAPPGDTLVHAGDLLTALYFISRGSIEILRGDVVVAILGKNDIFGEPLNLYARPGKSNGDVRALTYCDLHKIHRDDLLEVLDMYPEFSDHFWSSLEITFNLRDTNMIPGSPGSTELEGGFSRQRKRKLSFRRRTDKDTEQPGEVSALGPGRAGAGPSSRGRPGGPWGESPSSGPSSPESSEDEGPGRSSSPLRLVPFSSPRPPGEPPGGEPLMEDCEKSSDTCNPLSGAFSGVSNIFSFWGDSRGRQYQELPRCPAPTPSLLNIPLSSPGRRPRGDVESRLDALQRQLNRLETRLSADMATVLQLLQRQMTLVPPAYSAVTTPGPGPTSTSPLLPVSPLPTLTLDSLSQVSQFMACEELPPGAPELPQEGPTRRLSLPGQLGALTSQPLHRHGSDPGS

The assay addresses human ether-à-go-go-related gene (hERG) potassium channel (human, UniProt Q12809). As to the kind of experiment: primary screen, population patch clamp on CHO cells stably expressing hERG.
In the case of `COc1ccc(C)cc1NC(=O)c1ccc(NC(=O)CC2SC(N3CCCC3)=NC2=O)cc1` (stereo not shown), the “hERG current change (%, negative = inhibition) at 10uM” value is 18.2%.

Take `Cc1ccc(OC(F)F)c(NC(=O)Nc2cccc(C(F)(F)F)c2)c1`: the “hERG current change (%, negative = inhibition) at 10uM” value turned out to be 1.77%.

With `Cn1cc(CCNC(=O)CC2C(=O)NCCN2Cc2cccc(Oc3ccccc3)c2)cn1` (stereo not shown), the “hERG current change (%, negative = inhibition) at 10uM” value worked out at 6.49%.

Take `CCOc1ccc(C)cc1S(=O)(=O)n1ccc(C)n1`: the “hERG current change (%, negative = inhibition) at 10uM” value is recorded as 4.82%.

As for `COc1cccc(/C=N/Nc2nc3ccccc3n3cnnc23)c1O`, the “hERG current change (%, negative = inhibition) at 10uM” value is -6.87%.

As to `CC1CCN(CCCNC(=O)c2cc3c(=O)n(C)c4ccccc4c3n2C)CC1`, the “hERG current change (%, negative = inhibition) at 10uM” value is on record as -14.9%.

Regarding `CCOc1ccc2[nH]c(C)c(CN(C)C)c(=O)c2c1`, the “hERG current change (%, negative = inhibition) at 10uM” value amounted to 38.9%.

Take `CC(C)C(NC(=O)c1ccc(C(C)(C)C)cc1)C(=O)NCCc1ccccn1` (stereo not shown): the “hERG current change (%, negative = inhibition) at 10uM” value is given as -6.22%.

Regarding `Cc1ccc(CNC(=O)[C@H](C)NC(=O)C2CCN(C(=O)[C@@H]3CCCN3C(=O)OC(C)(C)C)CC2)cc1`, the “hERG current change (%, negative = inhibition) at 10uM” value is recorded as 4.79%.

On to `COc1ccc(-c2[nH]ncc2CNC(C)Cc2ccsc2)c(F)c1` (stereo not shown), for which the “hERG current change (%, negative = inhibition) at 10uM” value is -36.1%.

Take `COC(=O)C1=C(NC(=O)c2cccc(OC)c2)CCS1`: the “hERG current change (%, negative = inhibition) at 10uM” value is 12.4%.

Take `CCN1C(=O)CC(NCc2ccc3c(c2)OCO3)C1=O` (stereo not shown): the “hERG current change (%, negative = inhibition) at 10uM” value was -9.23%.

On to `CCOC(=O)N1CCC(NC(=O)c2cc3c(-c4ccc(Cl)cc4)nn(C)c3s2)CC1`, for which the “hERG current change (%, negative = inhibition) at 10uM” value stood at 4.16%.

For `C=CCN(C(=O)c1csnn1)C(C(=O)NC1CCCCC1)c1ccc(Cl)cc1` (stereo not shown), the “hERG current change (%, negative = inhibition) at 10uM” value is reported as 8.7%.

As for `COC(=O)c1ccc(-c2nc3ccc(C)cc3o2)cc1`, the “hERG current change (%, negative = inhibition) at 10uM” value is 1.55%.

Take `CN(C)/C=C/C(=O)c1cnc2n(c1=O)CCS2`: the “hERG current change (%, negative = inhibition) at 10uM” value was 7.45%.

Take `COc1cccc(CNC(=O)CCNC(=O)c2ccc(Br)o2)c1`: the “hERG current change (%, negative = inhibition) at 10uM” value worked out at 11.2%.

With `S=C(c1cn(Cc2ccc(Br)cc2)c2ccccc12)N1CCOCC1`, the “hERG current change (%, negative = inhibition) at 10uM” value is given as -16.2%.

`CCC(C)n1c(O)c(C=Nc2cccc(C(F)(F)F)c2)c(=O)[nH]c1=S` (stereo not shown): the “hERG current change (%, negative = inhibition) at 10uM” value was determined as 0.516%.

In the case of `Cc1c(Cl)c([N+](=O)[O-])nn1CC(=O)N1CCN(Cc2ccccc2)CC1`, the “hERG current change (%, negative = inhibition) at 10uM” value is -71%.

Turning to `Cc1ccc(N/C(CSC(N)=O)=N/S(=O)(=O)c2ccccc2)cc1`, the “hERG current change (%, negative = inhibition) at 10uM” value is recorded as -12.5%.

As for `N#C/C(=C(/O)CN1CCN(c2ccccc2F)CC1)c1nc(-c2ccccc2)cs1`, the “hERG current change (%, negative = inhibition) at 10uM” value was determined as 21.1%.

For the compound `N#Cc1c(NC(=O)Cn2nc(C(F)(F)F)c3c2CCCC3)sc2c1CCC2`, the “hERG current change (%, negative = inhibition) at 10uM” value came to 15.4%.

As for `CC(C)c1ccc(NC(=O)NC2CCCCC2)cc1`, the “hERG current change (%, negative = inhibition) at 10uM” value was 10.8%.

Consider `N#Cc1nc(-c2cccs2)oc1NCc1ccccc1Cl`, for which the “hERG current change (%, negative = inhibition) at 10uM” value is 14.4%.

Consider `CCOC(=O)/C=C1\SCC(=O)N1CC(=O)c1ccc[nH]1`, for which the “hERG current change (%, negative = inhibition) at 10uM” value stood at 8.08%.

Regarding `C=CCn1c(O)c(C(C)=Nc2ccc(N(CC)CC)cc2)c(=O)[nH]c1=O`, the “hERG current change (%, negative = inhibition) at 10uM” value was -26.9%.

Consider `O=S(=O)(NN1CCOCC1)c1ccc(Br)cc1`, for which the “hERG current change (%, negative = inhibition) at 10uM” value is 2.75%.

Turning to `CSc1nnc(C)c(=O)[nH]1`, the “hERG current change (%, negative = inhibition) at 10uM” value was determined as 5.11%.

As to `CC(=O)NC(CC(=O)OCC(=O)c1c(N)n(C)c(=O)n(C)c1=O)c1ccccc1` (stereo not shown), the “hERG current change (%, negative = inhibition) at 10uM” value was 10.6%.

For the compound `CCCC(C(=O)NC1CCCC1)N(CC1CCCO1)C(=O)CNS(=O)(=O)c1ccccc1` (stereo not shown), the “hERG current change (%, negative = inhibition) at 10uM” value is listed as 1.1%.

In the case of `CCOC(=O)CSc1nc(NCc2ccco2)c2ccccc2n1`, the “hERG current change (%, negative = inhibition) at 10uM” value is -56.1%.

As for `C=CCN(CC=C)Cc1c[nH]c2ccccc12`, the “hERG current change (%, negative = inhibition) at 10uM” value was determined as 0.037%.

Regarding `Nc1nnc(CCS(=O)(=O)c2cc(Cl)ccc2Cl)s1`, the “hERG current change (%, negative = inhibition) at 10uM” value was -13.7%.

Consider `CCN(CC)C(=O)Cn1cc(S(=O)(=O)CC(=O)NCc2ccc3c(c2)OCO3)c2ccccc21`, for which the “hERG current change (%, negative = inhibition) at 10uM” value is recorded as -9.63%.

In the case of `CCc1cccc2c(C=C(C#N)C#N)cn(CC(=O)N3CCCC3)c12`, the “hERG current change (%, negative = inhibition) at 10uM” value is reported as -5.76%.

`CC(C)[C@H](NC(=O)[C@@H]1Cc2ccccc2CN1)C(=O)NC1CCCCC1`: the “hERG current change (%, negative = inhibition) at 10uM” value is given as -43.4%.

On to `C=CCNc1nc(N2CCOCC2)nc(N2CCOCC2)n1`, for which the “hERG current change (%, negative = inhibition) at 10uM” value is listed as -9.33%.

Take `Cn1cc(-c2nnnn2-c2ccc(Cl)cc2)c(C(F)(F)F)n1`: the “hERG current change (%, negative = inhibition) at 10uM” value was -4.49%.

As for `CC1CCC(NCCc2ccc3c(c2)OCO3)CC1.O=C(O)C(=O)O` (stereo not shown), the “hERG current change (%, negative = inhibition) at 10uM” value is recorded as -21.3%.

For the compound `CCCc1cc(N2CCC(C(N)=O)CC2)nc(-c2ccccc2)n1`, the “hERG current change (%, negative = inhibition) at 10uM” value is on record as -19.1%.

For `OC(COCc1cccs1)CN1CCN(c2cccc(C(F)(F)F)c2)CC1` (stereo not shown), the “hERG current change (%, negative = inhibition) at 10uM” value was -69.6%.

For `CCOC(=O)[C@H]1[C@H]2COc3cc(OC)ccc3[C@@H]2N2C(=O)c3cc(OC)ccc3NC(=O)[C@@]12C`, the “hERG current change (%, negative = inhibition) at 10uM” value is given as -4.66%.

Regarding `O=C(Oc1cccnc1)c1ccc(Cl)c(Cl)c1`, the “hERG current change (%, negative = inhibition) at 10uM” value was determined as 2.56%.

On to `Cc1ccccc1NC(=O)/C(=C/c1ccccc1)c1ccccc1`, for which the “hERG current change (%, negative = inhibition) at 10uM” value is on record as 0.411%.

Regarding `Cc1ccc(S(=O)(=O)N2CCOCC2)cc1C(=O)NCc1cccs1`, the “hERG current change (%, negative = inhibition) at 10uM” value was -5.18%.

For the compound `CC(=O)NC(c1ccc(C)cc1)c1cc([N+](=O)[O-])c2cccnc2c1O` (stereo not shown), the “hERG current change (%, negative = inhibition) at 10uM” value stood at 1.93%.

Consider `Cc1ccc(NC(=O)CN(C)C(=O)c2cc(C)on2)cc1`, for which the “hERG current change (%, negative = inhibition) at 10uM” value is given as -4.91%.

`COc1ccc2oc(C(=O)N3CCN(C(=O)c4ccco4)CC3)c(C)c2c1`: the “hERG current change (%, negative = inhibition) at 10uM” value was -24.7%.

Turning to `Cc1cc(/C=C2\SC(=S)NC2=O)c(C)n1-c1ccccc1`, the “hERG current change (%, negative = inhibition) at 10uM” value was found to be 14.6%.

On to `COCCn1ccc(O)c(Cc2ccc(Cl)cc2)c1=O`, for which the “hERG current change (%, negative = inhibition) at 10uM” value was -0.571%.

`C=CCN1CCN(C(CC(C)C)c2nnnn2CCOC)CC1.Cl` (stereo not shown): the “hERG current change (%, negative = inhibition) at 10uM” value was 8.96%.

Turning to `N#Cc1nc(-c2cccc(Cl)c2)oc1N1CCC(C(N)=O)CC1`, the “hERG current change (%, negative = inhibition) at 10uM” value stood at 0.912%.

On to `CCOC(=O)N1CCC(NC(=O)CCC(=O)N2CC(C)Oc3ccccc32)CC1` (stereo not shown), for which the “hERG current change (%, negative = inhibition) at 10uM” value turned out to be 2.44%.

As for `COc1ccc(OC)c(C(=O)CSc2nnc(-c3cccs3)n2C)c1`, the “hERG current change (%, negative = inhibition) at 10uM” value amounted to 14.4%.

Regarding `CCOC(=O)c1nc(Nc2ccc(C(=O)O)cc2)c2ccccc2n1.Cl`, the “hERG current change (%, negative = inhibition) at 10uM” value turned out to be 1.54%.

As for `CCOc1cccc(/C=N/NC(=O)CC2C(=O)NN=C2C)c1O` (stereo not shown), the “hERG current change (%, negative = inhibition) at 10uM” value is recorded as 15.5%.

With `CCC(C)n1c(-c2cccs2)nc2nc3ccccc3nc21` (stereo not shown), the “hERG current change (%, negative = inhibition) at 10uM” value is on record as -4.95%.
